Here are results for 167 variants from the RNAGym collection of RNA variant scans (doi:10.7554/elife.90254).

The source gives no read counts; variants with many changes may rest on few reads.

B1: LINE1-mini (parent)
chain: GGCAGAGCUCAACACAGCGUGGCAAAGUGGCUGUGGCUAGACUGCC

Variants of B1 are the subject of this data set. The data set is described as follows: self-cleavage, relative activity (ratio to wild type); higher = more cleavage; in vitro, sequencing; the parent is a self-cleaving ribozyme.
Take C15A A24U C31G: the self-cleavage worked out at 0.01.
Take A4G C13A U28C: the self-cleavage worked out at 0.05.
The result for G27C C42A C46A reads 0.09; that for G1A C18G A39U G40A, 0.01.
With U20G G29A A39U C42A, the self-cleavage was found to be 0.11.
Take A16U C23A C45G: the self-cleavage came out at 0.01.
The result for G29U U34G C37A reads 0.1.
Next, G1U A11G U43A C46G: 0.02; C3U C18A G36A C46A: 0.04; G2C C18A U20A G30U: 0.12.
The result for G17A G35U G36U reads 0.05; that for U28C G30U U32A C37A G44U, 0.02; that for U34A C37A A39G, 0.11.
On to A6U G7U U32G C37A, for which the self-cleavage was 0.05.
In the case of A11C C18U G29C C45G, the self-cleavage amounted to 0.02.
Consider U20G A25U G40A G44C, for which the self-cleavage came out at 0.07.
The result for C10U C13U G21C A24U G30A reads 0.04.
Next, C18U G19U G27A: 0.64.
Regarding C15U G35A G44C, the self-cleavage is 0.03.
The result for G36U A41U C45G C46U reads 0.03; that for A4G C8A A12G G30C U38A, 0.03.
Next, C8A C18G G36U C37A C45U: 0.36.
The result for G5A U9A C23U A26U U34C reads 0.39.
Turning to C23U A24G G27U, the self-cleavage is 0.7.
As for G1U U43C G44C, the self-cleavage came out at 0.04.
Next, U9A G22A G29U G30A U43A: 0.13; G5U A6U G21C A39G C45U: 0.08; C10U U20A A25G U28C: 0.14.
A11U U43A C46U: the self-cleavage worked out at 0.02.
Next, G19C U20C A25U G35U: 0.01; G2A C18G U28C U34C: 0.59; A12U C13G G22A G27A A41U C46G: 0.28.
Next, A11C G22U A39U: 0.04; C3U C10A G27C G35A C42U: 0.
The result for G7A C10A A11C A16G C18A reads 0.01; that for A24U A25G C31A U34A A39U, 0.01; that for A4G C13U U28A G33A, 0.37.
With A4U A11U U20C G21C G29A G44C C46A, the self-cleavage stood at 0.01.
The result for A24C G33C C37A C45G reads 0.08; that for C3U A4C G5A C42U, 0.13; that for C8U A16U A25G G40C C46U, 0.04.
Next, A4G C15G C42A: 0.02; G7U C23G U32A G33U G36A: 0.05.
In the case of A6G G7C G36U, the self-cleavage was found to be 0.03.
Consider G21U G22C G44A, for which the self-cleavage is 0.4.
Turning to C3A G35U A39G, the self-cleavage came out at 0.21.
Consider G17A U32A A41G C42G, for which the self-cleavage was 0.
Next, G22A G35U U38C C45A: 0.03.
Turning to A12G U20C G30C G40C C46A, the self-cleavage worked out at 0.01.
As to C3A U28G C45G, the self-cleavage was 0.35.
The result for A4U A11C G44C reads 0.02; that for A6U A12C G19A U28C C42U, 0; that for C18A G27A G33C, 0.05.
For the variant A4C A11U A14G G21C U43C, the self-cleavage is 0.03.
Consider A16G G17U C23G G36A A39U, for which the self-cleavage was 0.09.
Turning to U34G G36A C46U, the self-cleavage was 0.03.
For the variant C15A G17A C18A G21A G35U U38G U43A, the self-cleavage amounted to 0.03.
For U9G G17U U38A, the self-cleavage was 0.02.
The result for G1A G17C C46U reads 1.96; that for G2U C8U C18U A25C G27U U28G, 0.02.
As for C15U G36U G44A, the self-cleavage was 0.11.
The result for G5A A11U U32G G33A reads 0.01; that for A4U A12U C13U U32G, 0.12; that for G2U G21A G30U U38A, 0.16.
For A4C G22U A39C A41C, the self-cleavage turned out to be 0.07.
C18A U20A A26C U28C U34A: the self-cleavage amounted to 0.03.
The result for C10G A12U A26G G30C C37U G44C C46U reads 0; that for G1U C8A C13U G22A, 0.28.
With C10U A16G C37G U38A C42G, the self-cleavage is 0.
Next, G1U C10A C15U G30U: 0.02.
On to U9G A11G C31U, for which the self-cleavage stood at 0.01.
Next, U9G G21A U28G G29C: 0.03.
Consider C10U G17U C37A G40A, for which the self-cleavage turned out to be 0.
With G19A G44C C45G, the self-cleavage turned out to be 0.06.
Next, G5U A6G G21C U34G U38A: 0.04.
As for G1U G22U G30U, the self-cleavage was 0.96.
Next, C3G A11C G19U A26U C46U: 0.02; G5U G7U C10U A26C U43A: 0.08.
For the variant A11U A14U C42A, the self-cleavage turned out to be 0.01.
On to C8U C18G A25U U43C, for which the self-cleavage turned out to be 0.08.
In the case of G1U U9A A24U G27C U28C G30A, the self-cleavage worked out at 0.01.
Next, G7C G33C G40A U43A G44U: 0.04; A11G G22U C45U C46A: 0.03; C8A A41C C46A: 0.09.
Next, U32C G33C C42A: 0.06.
Consider A4U G17U C42A, for which the self-cleavage turned out to be 0.07.
For G5C C10A C15G, the self-cleavage came out at 0.03.
As to A4U G17U C45G, the self-cleavage stood at 0.11.
As for C3U G5U A16C U20A U28G, the self-cleavage amounted to 0.02.
In the case of G1A C13G G30C U32C G44C, the self-cleavage was determined as 0.02.
The result for U9G C18A G27C G33A reads 0.03; that for G7A A11G A14G U20A C42G G44U, 0.03.
For the variant A16G G36A A39G C42U, the self-cleavage is 0.02.
As for G2A C3G C8U U9A C13A G17U G36C, the self-cleavage was 1.3.
The result for A16C G17A C18A U20A reads 0.04; that for G2A U9A C10G G35C, 0.04; that for C10A G22A G36A, 0.01.
For the variant C15A C23U G29A G33U U34G G35U A39U G40C C46G, the self-cleavage stood at 0.03.
Next, C10A C42A C46A: 0.01; C10A G19A G29A C31A: 0.03; G1U A24G U43A C45A C46U: 0.01.
The result for G22C C23U C37G reads 0.01; that for A4C G21A G44C C45A, 0.05; that for U9G C13A A16U G17C C18A G33A G36C, 0.01.
Next, A12C G40U C42U: 0.02.
Turning to G1C G21C C23U, the self-cleavage is 0.45.
Take G2A G7U C13A A14U G21U A41U G44U: the self-cleavage is 0.31.
Turning to A4C A6U G40A, the self-cleavage turned out to be 0.07.
Next, U9C G29U C37G A39G: 0.01; C18A G21U A39U A41U G44A: 0.04; C18A U20A U38C: 0.08.
Next, A25C G35A U38C: 0.11.
Next, G1A G5A C42A C45G: 0.12; A11U C13G A14G: 0.01.
For the variant G21C A24U C37U, the self-cleavage stood at 0.03.
The result for C10A G30U G40U reads 0.02.
For C3G C13A A26G, the self-cleavage amounted to 0.05.
Next, A4U C15G G33C: 0.06; C3U A11C A24U G33U: 0.01; C18U G29C G40A G44U: 0.03.
Next, G1U A6G U9G G22U: 0.09; C15U C23A A25C G33C: 0.03.
For the variant A4U G5U G40U, the self-cleavage was determined as 0.11.
As for G7U G17U G21A G22U A25U, the self-cleavage was 0.06.
Regarding A4G C8U C18U, the self-cleavage is 0.12.
The result for G7C C8G U38G reads 0.1; that for C3U A14C A26G G29C U32A C42G C45A, 0.01.
As for U20C G21U U28A C46A, the self-cleavage is 0.19.
For G2A A12U C13G U38G C42U, the self-cleavage came to 0.12.
C3G C10A U38A A41C: the self-cleavage amounted to 0.01.
As for G2C C3A G27U G33A, the self-cleavage came to 0.04.
Next, G1U A14G A26C C45A: 0.09; G2C C18G G22U C23A: 0.03; G2A C3A A26U: 2.94.
As to A6U G19A G29A, the self-cleavage stood at 1.41.
On to A4U A12G A25C U28C G40U, for which the self-cleavage came out at 0.02.
The result for A16U G27A C42A reads 0.08.
The result for G17U U20C U38C reads 0.07.
On to C3A C13G C18A G22C, for which the self-cleavage is 0.06.
The result for G1C G2U C10G G21A A26U G29U reads 0.02; that for U9A C13U C18G U43C, 0.3.
Next, G7U C8A G40U: 0.06; G29A C31A G40C C46A: 0.01.
As to A6U A16C A26C, the self-cleavage was found to be 0.
For the variant A4G C15A G27U U28C, the self-cleavage came to 0.39.
The result for G5A A6G A11U C15U reads 0.08; that for C10A G36C A39U G44U C45A, 0.
As for G7C U9C C10G G30C, the self-cleavage was 0.02.
Next, G7C A14G C15A C23U A26U C37U: 0.04; A4G C18G G30C U34A G44U: 0.02.
Next, A6U C8A U9G G35U: 0; C10A C37U U43C C45U: 0.
The result for G1A C8G G44A reads 0.02; that for A4G G21U G44U, 0.06.
Regarding G5U C42A C46A, the self-cleavage was 0.04.
Take C3G G17A U28G G30C U43C: the self-cleavage came out at 0.09.
The result for G7C U32C C46A reads 0.02; that for G2A G19A C37A G44U, 0.08.
With G7C C10G G17U G21U, the self-cleavage was found to be 0.03.
On to G1U G2C U20A, for which the self-cleavage is 0.07.
The result for C18G U20G G22U C42A reads 0.04; that for C8A G19A G35C A39G, 0.02; that for C13G G29U C37A, 0.16.
G5U C18A C31U G40U: the self-cleavage is 0.01.
The result for G2U G7U A41G reads 0.02; that for A4U A14U C37U, 0.05; that for A4U A6U U20C A26U C46A, 0.03.
